Experimental data published in the supplement of paper PMC3334620.
Whole data set: some 33,000 sequences, median “E-score (-0.5 to 0.5)” near -0.056, cut for the highest 2% near 0.38. Some of the results follow.

target: Stb4 (UniProt P50104); assay: PBM E-score (8-mer binding enrichment) (E-score (-0.5 to 0.5)); higher = stronger / more preferred TF binding; most listed sequences are background and not binding sites; details: protein concentration: 200 nM; construct: GST-DNA-binding domain
Procedure: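 Universal 'all 10-mer' protein binding microarrays (Agilent AMADID 015681) probed with GST-tagged S. cerevisiae TFs (full-length or DBD) made by in vitro transcription/translation (PURExpress), about 100-200 nM. Bound TF was detected with fluorescent anti-GST. Each ungapped 8-mer (which stands for itself and its reverse complement) is scored by the PBM enrichment score (E-score), a modified Wilcoxon-Mann-Whitney statistic from -0.5 to +0.5, computed with the Universal PBM Analysis Suite. Scale: above 0.35 generally sequence-specific binding.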

Sequence	PBM E-score
CCAATCCG	0.278
ATCTAGAC	-0.105
CTCGAAGA	-0.135
GACTTCCA	-0.163
CATCTCAA	-0.221
GTCTGAGA	-0.265
AAATCTCA	-0.0445
CAGAATAC	0.0367
TGACCGCA	0.0488
ACGTCACT	-0.0341
GATTTGGC	-0.164
CTCACTTC	-0.141
ATGCCCGA	0.112
AGCATAGA	-0.021
TAATATTA	0.142
ATCGCAAT	0.0414
CCTCTCGC	-0.129
CGGCGCAA	0.197
CCACATAA	-0.147
AACAGTGT	-0.206
AGCCACAT	-0.215
CGCGACAA	0.00998
CCCATTTA	-0.188
CACAAGCC	-0.00051

Sequence	PBM E-score
CGACGATC	0.168
CAATAATC	0.0381
AAAGGAGG	-0.0365
CGAGGGCC	0.164
ATGATCAT	-0.0384
AGGCCGGA	0.272
GATACACC	0.144
ACGAACGT	-0.112
CATAGACG	-0.124
CGGAAACA	0.427
GAAGTCTC	-0.00254
CTTCTTTC	-0.0217
GCGCGAGA	0.0692
CGTCAAGA	-0.109
TAGACCTA	-0.264
GCTTAAGC	-0.253
CTCGGATA	0.49
CGTAAACC	0.0518
TGAGGTAA	-0.095
ATGGGGTC	0.00568
AGCTACTA	0.0565
CACTTGAC	-0.179
GACTTATC	-0.0737
CGGTCCAC	0.00164

Sequence	PBM E-score
AAGAGCCG	0.334
GGGCACGA	-0.0287
GCCCCGGC	0.105
CATGTTAA	-0.0413
ATTAGGCC	-0.201
ATCCCGAG	0.439
GAGGAATA	0.11
GGGCGACA	0.0337
AATCATCG	0.0618
GCCGCGAC	0.0123
TAGAATGA	-0.266
GTACTACA	-0.211
ACTTTTTG	0.0106
ACCAGTCC	-0.135
GCTATGCA	-0.15
AGTGGAGG	-0.134
ACATGCGG	0.107
ATCGGAGG	0.199
ATTCTCAC	0.0398
GTACAGGA	0.0398
ACTGTAAT	-0.145
ACGCCGTG	-0.0449
ATCTACTC	-0.0131
CTAGAGCA	-0.24

Sequence	PBM E-score
AGAGACGC	0.0863
CGGTTGAA	0.124
ACCGCGCT	-0.0811
ACTGCGGA	0.175
CCGACTGC	0.263
ATCTGCAA	-0.214
ACTCAGCT	-0.129
AGGAACGA	0.0238
ACTCTCGC	-0.0541
AGATATGG	-0.149
CCTGTAAA	-0.219
CCCTGAAA	-0.237
AAAGCCAA	-0.118
CGCGAAGA	0.112
CCACGAGC	0.0234
ACTTTTAA	-0.131
AGTTTCCC	0.132
GATCGGGC	0.22
ATGGGTTA	-0.125
GGCCCGAA	0.381
AGAGAGAT	-0.139
CCGCTTCA	0.114
